Reference: PubChem BioAssay AID1963576 (National Center for Advancing Translational Sciences (NCATS), 2024)
The campaign covered roughly 46,000 compounds. About 60 (0.1%) were called active. Another 3% or so got no clear call; they are omitted. The call rests on the fitted dose curve; in most records, active means well fitted inhibition curve with a large enough effect; inconclusive means small, poorly fitted or top-dose-only effect; inactive means no such curve, though single readings can be large or run the other way. This is one part of the list.

Assay: Primary qHTS assay for Inhibitors of ovarian cancer metastasis using an organotypic tumor microenvironment (TME) model. Further: nearly all actives have a fitted effect of over 65% in size.
Details: SKOV3ip1-GFP adhesion/invasion on 3D omental model, fluorescence; series mostly up to 45.8 µM; activity change, negative = inhibition: at the top concentration
From the text: PI: Ernst Lengyel MD., Ph.D. Department of Obstetrics and Gynecology, Section of Gynecologic Oncology University of Chicago Medicine, Chicago, Illinois. The tumor microenvironment (TME) is a key determinant of metastatic efficiency. We performed a quantitative high-throughput screen (qHTS) of diverse medicinal chemistry tractable scaffolds (44,420 compounds) and pharmacologically active small molecules (386 compounds) using a layered organotypic, robust assay representing the ovarian cancer metastatic TME. This 3D model contains primary human mesothelial cells, fibroblasts, and extracellular matrix, to which fluorescently labeled ovarian cancer cells are added. Initially, 100 compounds inhibiting ovarian cancer adhesion/invasion to the 3D model in a dose-dependent manner were identified. Of those, eight compounds were confirmed active in five high-grade serous ovarian cancer cell lines and were further validated in secondary in vitro and in vivo biological assays. […] Specifically, NCGC00117362 and PP-121 inhibited ovarian cancer adhesion, invasion, and proliferation, whereas milciclib inhibited ovarian cancer invasion and proliferation. […] To evaluate the clinical potential of NCGC00117362, structure - activity relationship studies were performed. […] The three compounds identified have promise as therapeutics for prevention and treatment of ovarian cancer metastasis.
PROTOCOL TABLE (as described by Inglese J, Shamu CE and Guy RK. 2007) SEQUENCE No. (e.g., 1, 2, 3, etc.); […] (e.g., Cells, Incubation, Reagent, etc.); VALUE; DESCRIPTION. 1; Cells; 4 uL; primary human omental fibroblast, black, clear bottom, low base, 1536-well Aurora assay plate. 2; Incubation; 48 hr; 37C. 3; Cells; 3 uL; 1,200 SKOV3ip1-GFP cells. 4; Compounds; 23nL; acoustic dispenser. 5; Incubation; 2 hr; room temperature. 6; Incubation; 16 hr; 37C. 7; Wash; 5 uL; 1x PBS. 8; Fixing; 5 uL; 4% paraformaldehyde (PFA). 9; Incubation; 15 min; room temperature 10; Wash, 5 uL; 1x PBS. 11; Detection; Fluorescence, excitation filter 488 nm, emission filter 509 nm. NOTES (numbers refer to Sequence numbers above) 1. For the 1,536-well format, 40 primary human omental fibroblasts and 400 mesothelial cells were seeded with 0.02 µg fibronectin and 0.02 µg collagen type I in 4 µL of growth media (2.3 mm2; Supplementary Fig. S1A). 2. Assay plates were incubated for 48 hours at 37 C. 3. After incubation, 1,200 SKOV3ip1-GFP were seeded in 3 µL of serum-free media (growth media minus FBS) on top of primary human omental cells. 4. Compounds or controls were added to each well immediately after the addition of the cancer cells. Compounds were screened in four doses (0.36-46 µmol/L), and the plates contained the positive control (Tomatine) in eight doses (0.035-75 µmol/L) and DMSO (equal volume controls) 5 - 6. The plates were incubated at room temperature for 2 hours and then at 37 degrees C for 16 hours. 7 - 10. Following incubation, the media were aspirated and each well washed with PBS (5 µL) and then fixed with 4% paraformaldehyde (PFA; 5 µL). After 15 minutes, the PFA solution was aspirated, PBS (5 µL) was added. 11. The number of GFP-labeled cells analyzed using a fluorescent cytometer TTP LabTech Acumen eX3 using 488 nm excitation filter and 509 nm emission filter. Data was normalized to the DMSO treated for negative and Tomatine treated wells for positive control. REFERENCES: Inglese J, Shamu CE and Guy RK, Reporting data from high throughput screening of small molecule libraries, Nature Chemical Biology, 2007, 3(8): 438-441. doi.org/10.1038/nchembio0807-438. Yasgar A, Shinn P, Jadhav A, Auld DS, Michael S, Zheng W, Austin CP, Inglese J and Simeonov A, Compound Management for Quantitative High-Throughput Screening. J. Assoc. Lab. Auto., 2008, 13: 79-89. doi: 10.1016/j.jala.2007.12.004.

Activity change, negative = inhibition, inactive:
COc1ccccc1N1CCN(c2ncnc3onc(C)c23)CC1 0.736%
COc1ccc(-c2cc(C)no2)cc1S(=O)(=O)N1CC(C)Oc2ccccc21 (stereo not drawn) -1.73%
CCOc1ccc(CCNC(=O)Cc2ccc(NC(=O)N3CCSc4ncccc43)cc2)cc1 -6.13%
COc1ccc(-n2nc(C(=O)N3CCN(c4cccc(C(F)(F)F)c4)CC3)c3c4ccccc4n(C)c3c2=O)cc1Cl -2.94%
COc1cccc(CN2CCc3nc(N4CCN(C)CC4)ncc3C2)c1 -9.43%
COc1cc(OC)cc(C(=O)Nc2nc(-c3nnn(-c4ccc(F)c(Cl)c4)c3C)ns2)c1 -2.13%
Cc1oc2ncn(C)c(=O)c2c1C(=O)NCc1ccccc1 0.816%
CNCc1ccc(-c2[nH]c3cc(F)cc4c3c2CCNC4=O)cc1 -5.69%
COc1cccc(N2CCN(C(=O)Cn3ncc4c5ccccc5n(C)c4c3=O)CC2)c1 1.34%
COc1cccc(C(=O)Nc2ccccc2-c2nnc(-c3ccc(C(C)(C)C)cc3)o2)c1 -0.358%
COc1ccc(NC(=O)CSc2nc(C)cc(C)c2C(=O)Nc2cccc(C)c2)cc1 0.844%
COc1ccc2cc3cc(C(=O)Nc4ccccc4C)oc3nc2c1 12.8%
O=C(CSc1nc(-c2ccco2)nc2cc(=O)[nH]n12)Nc1ccccc1F -5.59%
O=C(c1ccccc1Cl)N1CCN(CCc2ccccn2)CC1 -2.77%
Cc1ccc(-c2ncn(-c3ccc(Nc4nccc(-c5cccc(N6CCOCC6)c5)n4)cc3)n2)cn1 -15.7%
Cc1ccccc1NC(=O)c1ccc(F)c(S(=O)(=O)NC2CCCC2)c1 13.4%
CCN1CCN(C(=O)c2ccc3c(c2)N(Cc2ccccc2F)C(=O)c2ccccc2S3(=O)=O)CC1 -12.4%
CCNC(=O)c1noc(-c2cc(C(C)C)c(O)cc2O)c1-c1ccc(CN2CCOCC2)cc1 34.6%
CCOc1ccc(-c2cc(CCCC(=O)NCCc3ccc(OCC)c(OCC)c3)no2)cc1 -9.54%
CCCOC(=O)c1ccc(Nc2nc3ccccc3nc2-n2nc(C)cc2C)cc1 -8.01%
CCOC(=O)c1cccc(NC(=O)N2CC(CC)Oc3ccccc32)c1 (stereo not drawn) -3.09%
COc1ccc(NC(=O)c2sc3nc4c(cc3c2N)CCCCCC4)cc1Cl -21.8%
COc1cc(NS(=O)(=O)c2ccc(NC(=O)c3ccc(C(C)=O)cc3)cc2)nc(OC)n1 -9.74%
COc1cccc(N(C)C(=S)Oc2ccc3c(c2)CCCC3)n1 -6.31%
CCn1c(=O)c2cc(C(=O)N(C)c3cc(Cl)c(OC)cc3OC)sc2c2ccccc21 6.98%
CCc1nn(CC(=O)NCCN(CC)CC)c(=O)c2cc3occc3n12 -4.92%
Cc1nc2cccnc2n1C1CCN(S(=O)(=O)c2ccc(C(C)C)cc2)CC1 -1.97%
Cc1cccc(-n2ncc(C(=O)NCc3ccco3)c2C2CCN(C(=O)OC(C)(C)C)CC2)c1 -9.75%
N#C/C(=C\c1ccc(Br)cc1)c1nc(-c2cc3cc(Br)ccc3oc2=O)cs1 2.82%
COC(=O)c1ccc(Cl)cc1NC(=O)N1CCC(CN2CCCC2)CC1 -8.06%
Cc1ccc(C(=O)c2cn(Cc3ccccc3F)c3cc4c(cc3c2=O)OCO4)cc1 6.3%
COC(=O)c1c(NC(=O)COc2ccccc2Cl)sc2c1CCC(C(C)(C)C)C2 (stereo not drawn) 1.25%
O=C(Nc1ccc(Br)cc1)c1ccc(Br)c(S(=O)(=O)N2CCCCC2)c1 -3.73%
CCc1ccccc1N(C)S(=O)(=O)c1ccc2[nH]cc(C(=O)NCCOC)c(=O)c2c1 20.6%
CCc1ccc(S(=O)(=O)c2c[nH]c3cc(OC)c(OC)cc3c2=O)cc1 -6.04%
COc1cc(/C=C(\C#N)c2nc3ccc(C)cc3[nH]2)ccc1OC(C)C -9.89%
CC1(C)O[C@@H]2C[C@H]3[C@@H]4CCC5=CC(=O)C=C[C@]5(C)[C@@H]4[C@@H](O)C[C@]3(C)[C@]2(C(=O)CO)O1 1.24%
COc1cccc(NC(=O)C(=O)NCC(c2ccc3c(c2)OCO3)N2CCOCC2)c1 (stereo not drawn) -8.82%
Cc1ccccc1NC(=O)Cn1c(=O)n(-c2ccc(CC(=O)NCC3CCCO3)cc2)c(=O)c2ccccc21 (stereo not drawn) -20.9%
CC(C=CC=C(C)C=CC1=C(C)CCCC1(C)C)=CC=CC=C(C)C=CC=C(C)C=CC1=C(C)CCCC1(C)C -3.39%
Fc1ccc(C(Nc2ccc(Cl)c(C(F)(F)F)c2)c2nnc(-c3ccccc3)o2)cc1 (stereo not drawn) -12%
CN(Cc1ccccc1)C(C(=O)NC1CCCCC1)c1ccc(Cl)cc1 (stereo not drawn) -4.14%
COc1cc(OC)c(NC(=O)CCn2cccn2)cc1Cl -2.67%
Cc1ccc(OCC(=O)N(Cc2ccco2)Cc2ccco2)cc1 -2.44%
COc1cccc(-c2nc(CS(=O)(=O)CC(=O)Nc3cc(F)ccc3F)c(C)o2)c1 0.411%
Cc1ccc(NC(=O)CSc2nc3ccccc3c3nc(CCn4cncc4C)nn23)c(C)c1 0.658%
COc1cc(-c2noc(-c3ccc(N4CCOCC4)c([N+](=O)[O-])c3)n2)cc(OC)c1OC 1.64%
Cc1c2cnn(-c3ccccc3)c(=O)c2c(C)n1CC(=O)N1CCN(c2ccc(F)cc2)CC1 4.1%
CCN(CCCNC(=O)CSc1cc(=O)n(C)c2cc(Cl)ccc12)c1cccc(C)c1 -2.33%
COc1ccc2nc3sc(C(=O)N4CCN(c5ccccc5)CC4)cc3cc2c1 -3.03%
Oc1c(C(c2ccc(Br)cc2)N2CCOCC2)sc2nc(-c3ccco3)nn12 (stereo not drawn) 3.55%
CCc1ccc(C(=O)c2c(N)c(-c3nc(-c4ccc5c(c4)OCO5)cs3)c3ccccn23)cc1 -5.86%
CCS(=O)(=O)c1nc2ccccc2n1CC(=O)Nc1ccccc1C(=O)OC 4.16%
COc1cccc(CNC(=O)c2ccc3c(c2)N(Cc2ccc(C(F)(F)F)cc2)C(=O)c2ccccc2S3)c1OC -1.71%
CN1CCN(C(=O)c2cnn(-c3cccc(Cl)c3)c2C2CCN(C(=O)OC(C)(C)C)CC2)CC1 21.4%
CCCCNc1nc2c(S(=O)(=O)c3ccc(Cl)cc3)nnn2c2ccsc12 16.4%
O=C(NCc1ccco1)c1c[nH]c2ccc(S(=O)(=O)Nc3ccc(F)cc3F)cc2c1=O -6.29%
CC(C)CCNC(=O)CN1C(=O)c2cccnc2Oc2ccccc21 4.25%
N#Cc1ccccc1S(=O)(=O)N1CCCC(c2nc3c(nnn3Cc3cccc(Cl)c3)c(=O)[nH]2)C1 (stereo not drawn) 9.87%
COC(=O)c1ccc([C@H]2Nc3ccc(S(=O)(=O)Nc4ccc(C)cc4)cc3[C@H]3C=CC[C@H]32)cc1 3.51%
CC(C)(C)c1ccc(S(=O)(=O)c2cnc(SCC(=O)Nc3ccc(F)c(Cl)c3)[nH]c2=O)cc1 -7.83%
CCOc1ccc(NC(=O)Cc2ccc(NC(=O)N3CCCCc4ccccc43)cc2)cc1 -0.553%
CCOc1ccccc1CNC(=O)CN(c1ccc(C)cc1)S(=O)(=O)N(C)C 14.5%
Cc1ccc(CN(Cc2ccco2)C(=O)COc2ccc(Cl)cc2Cl)cc1 9.02%
COc1ccc(-c2nnc(SCC(=O)NCc3ccccc3)nc2-c2ccc(OC)c(OC)c2)cc1OC -9.97%
COc1ccc(S(=O)(=O)N2CCC(c3nnc(-c4ccccc4C)o3)CC2)c(OC)c1 -3.08%
Cc1noc2ncnc(N3CCCC(C(=O)NCCC(C)C)C3)c12 (stereo not drawn) 11.4%
COc1cccc(-n2cc(C(=O)Oc3ccc(F)cc3)c3ccccc3c2=O)c1 0.568%
Cc1nn2c(=O)cc(COC(=O)c3ccccc3NC(=O)C(C)C)nc2s1 8.85%
Cc1ccc(S(=O)(=O)c2c(Nc3ccccc3)sc(C(=O)c3ccc4c(c3)OCO4)c2N)cc1 88.8%
O=C(C=Cc1ccc(/C=C/C(=O)Nc2ccc(C3=NCCN3)cc2)cc1)Nc1ccc(C2=NCCN2)cc1 -5.48%
CCCNC(=O)CCn1nc(-c2ccc(C)cc2)c2ccccc2c1=O 3.39%
COc1ccc(C)cc1S(=O)(=O)Nc1cccc(-c2ccc(N3CCCC3)nn2)c1 -7.95%
COc1ccc(OC)c(NC(=O)Cn2ccn(-c3ccc(F)cc3)c(=O)c2=O)c1 3.01%
Cc1ccc(C(N)=O)cc1Nc1nccc(-c2cn(C(C)C)c3cnccc23)n1 -13.1%

outcome, inactive:
CCN1CCN(CCCNC(=O)c2ccc3c(c2)sc2nc(-c4ccc(C)cc4)cn23)CC1
O=C(CSc1ccc(-c2cccs2)nn1)Nc1cccc(F)c1
Cc1cccc(-c2noc(-c3cc(-c4ccc(F)cc4)n[nH]3)n2)c1
C[C@@H](NC(=O)CN(c1ccccc1)S(=O)(=O)N(C)C)c1ccccc1
Cc1ccc(N2CCN(C(=O)c3c(C)oc4nc(C)nc(N5CCCC5)c34)CC2)c(C)c1
Cc1cccc(CNC(=O)CCCN2C(=O)COc3ccc(C)cc32)c1
O=C(CSc1ncc2c(n1)-c1ccccc1N(Cc1ccc(F)cc1)S2(=O)=O)NCc1ccccc1
Cc1ccc(CCNC(=O)c2cc3sccc3n2Cc2ccc(F)cc2)cc1
Cc1cn2c(=O)cc(COC(=O)c3cccc(NC(=O)COc4ccc(Cl)cc4)c3)nc2s1
COc1ccc2cc3cc(C(=O)NCCc4ccccc4)sc3nc2c1Cl
COc1ccc(-c2cc(C(F)(F)F)nc(NCc3ccccc3)n2)cc1
O=C(Cn1c(=O)n(-c2ccc(Cl)cc2)c(=O)c2sc3ccccc3c21)NC1CCCCC1
COc1ccc(CCNC(=O)CCn2c(=O)c3ccccc3n(Cc3c(C)cc(C)cc3C)c2=O)cc1OC
Cc1nn(-c2ccccc2)c2c1N(CCCC(=O)NCc1ccc(Cl)cc1)C(=O)CS2
Cc1csc2nc(CCNS(=O)(=O)c3ccccc3)cn12
CN(C)c1ccc(C(CNC(=O)c2ccccc2F)N2CCc3ccccc32)cc1 (stereo not drawn)
COc1cc(C(=O)Nc2cccc(OCc3cc(=O)n4c(C)csc4n3)c2)cc(OC)c1OC
COc1ccc(-c2nc(SCC(=O)NCC3CCCO3)c(-c3ccc(Cl)cc3)[nH]2)cc1 (stereo not drawn)
